We go through 17 cell lines from the supplement of paper PMC4967469.

The IC50 comes from the fitted curve, where viability falls to half of the control; where the fit passes the top or lowest dose, that dose stands as a limit. The AUC spans the tested range (256-fold, ending at the top dose) of the same fit: 1 means no effect, lower means more sensitive. An inferred top dose is not printed in the source and was worked back from the curve model.

Assay in all cases: Viability of human cancer cell lines after 72 h of drug (GDSC screen)
Compound in one test: N#Cc1c(C2CCNCC2)cc(-c2c(O)cccc2OCC2CC2)nc1N [ACHP (KIN001-260)]
The following applies: top dose 20 µM; top dose inferred. As for the experimental part: (§1)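 Human cancer cell lines in 384-well plates, medium with 10% serum, drug for 72 h over a 256-fold dose range (nine 2-fold or five 4-fold steps up to the top dose). Adherent lines were fixed and stained with the nucleic acid dye Syto60, suspension lines read with resazurin; signal relative to control wells, capped at 0 and 100%. One two-parameter sigmoid per drug and line, fitted in a mixed model over all curves with the slope shared within a line.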

Compound in another test: CCc1cc2c(cc1N1CCC(N3CCOCC3)CC1)C(C)(C)c1[nH]c3cc(C#N)ccc3c1C2=O [CH5424802]
The following applies: top dose 5.12 µM; top dose inferred. As for the experimental part:
as §1

Compound in another test: CCOc1cc(N2CCC(O)CC2)ccc1Nc1ncc2c(n1)N(C)c1ccccc1C(=O)N2C [XMD8-92]
Particulars: top dose 10 µM; top dose inferred. As for the experimental part: as §1

Compound in the next test: CC(C)(C)OC(=O)Nc1ccc(-c2cc(C(=O)NCCCCCCC(=O)NO)no2)cc1 [CAY10603]
Particulars: top dose 20 µM; top dose inferred. As for the experimental part:
as §1

In general, IC50 refers to the point on the concentration scale where inhibition reaches its midpoint.

Turning to SW620 (large intestine, adherent), the AUC came out at 0.979 in the test with ACHP (KIN001-260), 0.971 with CH5424802 and 0.881 with XMD8-92. The half-maximal inhibitory concentration (IC50) with ACHP (KIN001-260) was > 20 µM; in the test with CH5424802 it was > 5.12 µM; with XMD8-92, 8.34 µM.
As for SW626 (ovary, adherent), the AUC with CAY10603 was 0.87; in the test with CH5424802, 0.98; with XMD8-92, 0.889. For the same cell line, the half-maximal inhibitory concentration (IC50) with CAY10603 is > 20 µM; with CH5424802, > 5.12 µM; in the test with XMD8-92, > 10 µM.
Take U-698-M (B-cell leukaemia, suspension): the AUC with ACHP (KIN001-260) was found to be 0.867; with CAY10603 it was 0.54; with CH5424802, 0.93. Also, the IC50 with ACHP (KIN001-260) was 18 µM; in the test with CAY10603, 1.61 µM; in the test with CH5424802, > 5.12 µM.
As to UACC-257 (melanoma, adherent), the AUC was 0.849 with ACHP (KIN001-260), 0.508 in the test with CAY10603 and 0.979 with CH5424802. Further, the IC50 in the test with ACHP (KIN001-260) is > 20 µM; with CAY10603, 1.32 µM; in the test with CH5424802, > 5.12 µM.
With UACC-812 (breast, adherent), the AUC with ACHP (KIN001-260) was found to be 0.991; with CAY10603 it was 0.744; in the test with CH5424802 it was 0.991. In addition, the 50% inhibitory concentration (IC50) was > 20 µM with ACHP (KIN001-260), 6.08 µM in the test with CAY10603 and > 5.12 µM in the test with CH5424802.
In the case of UM-UC-3 (bladder, adherent), the AUC in the test with ACHP (KIN001-260) came out at 0.915; in the test with CAY10603, 0.587; with CH5424802, 0.984. Besides, the IC50 was > 20 µM in the test with ACHP (KIN001-260), 2.13 µM in the test with CAY10603 and > 5.12 µM with CH5424802.
As for UMC-11 (lung carcinoid, adherent), the figures for the AUC with ACHP (KIN001-260), with CAY10603 and with CH5424802 were 0.965, 0.412 and 0.989, respectively. Besides, the IC50 with ACHP (KIN001-260) was > 20 µM; with CAY10603, 0.738 µM; in the test with CH5424802, > 5.12 µM.
With VM-CUB-1 (bladder, adherent), the AUC turned out to be 0.986 in the test with ACHP (KIN001-260), 0.693 with CAY10603 and 0.987 with CH5424802. For the same cell line, the half-maximal inhibitory concentration (IC50) is > 20 µM in the test with ACHP (KIN001-260), 4.26 µM in the test with CAY10603 and > 5.12 µM with CH5424802.
As to “VMRC-LCD (lung adenocarcinoma, adherent)”, in the test with XMD8-92, the AUC stood at 0.947 and the 50% inhibitory concentration (IC50) was > 10 µM.
Consider VMRC-RCW (kidney, adherent), for which the AUC in the test with ACHP (KIN001-260) was 0.975; with CAY10603, 0.7; with CH5424802 it was 0.989. Moreover, the IC50 with ACHP (KIN001-260) is > 20 µM; in the test with CAY10603 it was 4.34 µM; with CH5424802 it was > 5.12 µM.
For the cell line WM793B (melanoma, adherent), the figures for the AUC with ACHP (KIN001-260), with CAY10603 and with CH5424802 were 0.96, 0.693 and 0.979, respectively. The figures for the 50% inhibitory concentration (IC50) with ACHP (KIN001-260), in the test with CAY10603 and with CH5424802 were > 20 µM, 4.64 µM and > 5.12 µM, respectively.
WSU-NHL (lymphoid neoplasm, suspension): the figures for the AUC with ACHP (KIN001-260), with CAY10603 and with CH5424802 were 0.916, 0.524 and 0.989, respectively. Also, the IC50 with ACHP (KIN001-260) is > 20 µM; with CAY10603, 1.44 µM; with CH5424802, > 5.12 µM.
As to YAPC (pancreas, adherent), the results for the AUC in the test with ACHP (KIN001-260), in the test with CAY10603 and with CH5424802 were 0.984, 0.853 and 0.979, respectively. Besides, the results for the IC50 with ACHP (KIN001-260), with CAY10603 and with CH5424802 were > 20 µM, > 20 µM and > 5.12 µM, respectively.
Turning to YKG-1 (glioma, adherent), the AUC worked out at 0.985 with ACHP (KIN001-260), 0.569 in the test with CAY10603 and 0.981 with CH5424802. The IC50 with ACHP (KIN001-260) was > 20 µM; with CAY10603, 1.93 µM; in the test with CH5424802 it was > 5.12 µM.
Consider YMB-1-E (breast, adherent), for which the AUC with ACHP (KIN001-260) amounted to 0.967; with CAY10603 it was 0.721; with CH5424802 it was 0.978. In addition, the IC50 with ACHP (KIN001-260) is > 20 µM; with CAY10603, 6.79 µM; in the test with CH5424802 it was > 5.12 µM.
As for YT (lymphoid neoplasm, suspension), the AUC in the test with ACHP (KIN001-260) was 0.887; with CAY10603 it was 0.189; with CH5424802 it was 0.973. Moreover, the IC50 with ACHP (KIN001-260) was 16.4 µM; with CAY10603, 0.18 µM; with CH5424802 it was > 5.12 µM.
In the case of ZR-75-30 (breast, adherent), in the test with XMD8-92, the AUC is 0.957 and the IC50 is > 10 µM.
